# Measurements: patent publication US11542275B2, “Substituted imidazolidin-2-one derivatives as PRMT5 inhibitors” (Aurigene Discovery Technologies Limited, priority 2018, dated 2023)
# Target: PRMT5/MEP50 Complex (Homo sapiens (Human), UniProt O14744)
# Assay: PRMT5 inhibition based on TR-FRET assay
# Format: biochemical
# Details: 32 nM PRMT5:MEP50 complex, 50 nM Histone-H4 peptide, 1 μM SAM, 90 minutes at room temperature
# Excerpt: Protein arginine methyltransferase 5 (PRMT5) is a type II arginine methyltransferase that catalyze mono- and symmetric demethylation on arginine residues of histone or non-histone proteins in presence of S-adenosylmethionine (AdoMet or SAM) a cofactor responsible for donating the methyl group. PRMT5 is reported to be overexpressed in several human cancers. To identify compounds that inhibit the PRMT5 and decrease its activity, a TR-FRET based assay has been established. Time-resolved fluorescence resonance energy transfer (TR-FRET) HTS assays are homogeneous proximity assays where the interaction of two dye-labeled binding partners is detected by the energy transfer between a donor and an acceptor dye, and the subsequent light emission by the acceptor dye. PRMT5 catalyzes Histone H4 peptide which is biotin tagged to the Lysine amino acid at carboxyl end, in presence of S-adenosyl-1-methionine (SAM) to methylate the peptide. The antibody specific to mono methylated H4 peptide (H4R3) with Ig conjugate binds to the methylated peptide, indirectly binding to the Europium lanthanide. SureLight Allophycocyanin-Streptavidin binds to the biotin tag of the peptide, therefore accepting the energy transferred from the Europium lanthanide. This energy transfer between Europium to SureLight Allophycocyanin is a direct measure of the activity/inhibition of the PRMT5 enzyme.
# Assay buffer: 20 mM BICINE (pH 7.6), 25 mM NaCl, 2 mM DTT, 0.01% Tween-20 and 0.01% BSA.
# The compound dilutions were prepared as 7.5% DMSO stock solutions in assay buffer. To 2 μL (7.5×) of test compound, 5 μL of PRMT5 enzyme prepared in assay buffer (Final concentration of 32 nM in 15 μL reaction volume) was added and allowed for 30 minutes pre-incubation time in a white polystyrene 384-well plate at room temperature. […] The plates were then read on Victor-3 with Excitation at 340 nm and Emissions collected at 615 and 665 nm in TR-FRET protocol. […]
row,IC50 [µM],SMILES
1,0.019,"CC(=O)N1CCN(c2ccc(CN3CCN(CC(O)CN4CCc5cccc(F)c5C4)C3=O)nc2)CC1 (stereo not drawn) [Compound 81, 1-((5-(4-acetylpiperazin-1-yl)pyridin-2-yl)methyl)-3-(3-(8-fluoro-3,4-dihydroisoquinolin-2(1H)-yl)-2-hydroxypropyl)imidazolidin-2-one]"
2,0.022,"O=C1N(Cc2ccc(C3CCOCC3)cn2)CCN1CC(O)CNC1Cc2ccccc2C1 (racemic) [Compound 88, 1-(3-((2,3-dihydro-1H-inden-2-yl)amino)-2-hydroxypropyl)-3-((5-(tetrahydro-2H-pyran-4-yl)pyridin-2-yl)methyl)imidazolidin-2-one]"
3,0.119,"O=C1N(Cc2ccc(C3COC3)cn2)CCN1C[C@H](O)CN1CCc2ccccc2C1 [Compound 78, (R)-1-(3-(3,4-dihydroisoquinolin-2(1H)-yl)-2-hydroxypropyl)-3-((5-(oxetan-3-yl)pyridin-2-yl)methyl)imidazolidin-2-one]"
